Source: PubChem BioAssay AID493208 (National Center for Advancing Translational Sciences (NCATS), 2011)
Out of some 44,000 compounds screened, about 340 (0.77%) were called active. Not shown: some 5% with an inconclusive outcome. Calls follow the shape of the dose curve; as a rule, active = well fitted inhibition curve with a large enough effect; inconclusive = small, poorly fitted or top-dose-only effect; inactive = flat fitted curve, though single readings scatter. Some of the results follow.

experiment: Acumen qHTS Assay for Inhibitors of the mTORC1 Signaling Pathway in MEF (Tsc2-/-, p53-/-) Cells: Sytravon; settings: phospho-rpS6 immunofluorescence/PI, 24 h; series mostly up to 38.3 µM; activity change, negative = inhibition: at the top concentration; also: nearly all actives have a fitted effect of over 50% in size;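 as to activity change, negative = inhibition: plate controls were DMSO for no effect and rapamycin for full effect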
How it was run: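 Tsc2-/-, p53-/- mouse embryonic fibroblasts (empty-vector line) exposed to compound 24 hrs at 37 C, fixed, immunostained for phospho-rpS6 and counterstained with propidium iodide. Acumen laser scanning gives % positive cells from Alexa 488/PI ratio, thresholded using 7.5 nM rapamycin; PI count gives viability.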
Potency is read from the fitted curve at half-maximal effect.

Structure (SMILES)	activity change, negative = inhibition	Potency
O=C(NC1CC(=O)N(c2ccc(F)cc2)C1)C1CCCCC1 (stereo not given)	inactive: -7.57%	
CCOc1cc(/C=C(\C#N)C(=O)Nc2ccccc2C)ccc1OCc1cc(=O)n2nc(CC)sc2n1	inactive: -15%	
Cc1ccc(NC(=O)C2CCN(c3nnc(-n4cccc4)s3)CC2)cc1Cl	inactive: -0.0984%	
CCOc1ccc(-c2csc(-c3nc(-c4ccc(Br)s4)cs3)n2)cc1	inactive: 7.59%	
COc1cccc(C(c2c(O)cc(C)n(Cc3ccco3)c2=O)N2CCC(C)CC2)c1 (stereo not given)	inactive: 4.73%	
COc1ccc(OC)c2sc(N(Cc3cccnc3)C(=O)c3ccc(C(C)=O)cc3)nc12	inactive: -5.68%	
COc1ccc(-c2nc(C)c(CCNC(=O)c3cc(OC)c(OC)c(OC)c3)s2)cc1OC	inactive: 1.93%	
O=C(NCc1ccccc1)c1cc2ccccc2o1	inactive: 5.08%	
CC(C)CCNC(=O)c1cccc(-n2cnc3cccnc32)c1	inactive: -5.13%	
Cc1ccc(C(=O)COC(=O)c2cccc(NC(=O)c3ccc(Br)cc3)c2)cc1	inactive: -19.7%	
Cc1ccc(C)c(N2CCN(S(=O)(=O)c3ccc4c(c3)CC(=O)N4C)CC2)c1	inactive: 2.01%	
Cc1ccc2c(c1)-c1c(c(C(=O)NCCc3ccccc3)nn1C)CS2	inactive: -10.3%	
Cc1cccc(CS(=O)(=O)Cc2ccc(C(=O)NC(C)c3ccccc3)o2)c1 (stereo not given)	inactive: 4.58%	
COc1cccc(CNC(=O)Cn2c(SCC(=O)Nc3ccc(F)cc3)nc3ccccc32)c1	inactive: -1.13%	
CCCCN(CC)CCCNC(=O)C1CCN(c2nc3ccc(CC)cc3s2)CC1		active: 7.36 µM
COc1ccc(CCC(=O)NCc2nc3cccnc3n2Cc2ccc(C)cc2)cc1	inactive: 2.77%	
CCOCCCNC(=O)c1[nH]c2cc(OC)ccc2c1Sc1ccccc1	inactive: 0.573%	
Cc1cccc(N(CC(=O)Nc2cccc(Cl)c2C)S(C)(=O)=O)c1C	inactive: -14.3%	
Cc1ccc(S(=O)(=O)NCC(c2ccco2)N2CCN(c3ccccc3F)CC2)cc1 (stereo not given)	inactive: -3.64%	
COC(=O)c1c(NC(=O)c2nc(SCc3ccc(C)cc3)ncc2Cl)sc2c1CCCC2	inactive: 0.0534%	

Structure (SMILES)	activity change, negative = inhibition	Potency
CCCCCNS(=O)(=O)c1ccc(N2CCCCS2(=O)=O)cc1	inactive: -32.7%	
COc1ccc(NC(=O)Cn2c(=O)n(CCC(=O)NCCc3ccc(OC)c(OC)c3)c(=O)c3ccccc32)cc1Cl	inactive: 1.41%	
CCCN1C(=O)CN(C2CCCCC2)C(=O)C1c1ccc(OC)c(OC)c1 (stereo not given)	inactive: 10.2%	
O=C(NC1CC1)c1ccc(Cn2c(SCc3ccccc3F)nc3cccnc32)cc1	inactive: -11.7%	
COc1cccc([C@@H]2Nc3ccc(C(=O)O)cc3[C@@H]3C=CC[C@@H]32)c1OC	inactive: -2.99%	
Cc1ccc2c(=O)cc(C(=O)Nc3ccc(S(=O)(=O)Nc4onc(C)c4C)cc3)oc2c1	inactive: -2.56%	
Cc1cccc(-n2ncc(C(=O)N3CCN(C(=O)c4ccco4)CC3)c2C2CCN(C(=O)OC(C)(C)C)CC2)c1	inactive: 5.36%	
CC(NC(=O)C(=O)Nc1c2c(nn1-c1ccccc1)CSC2)c1ccccc1 (stereo not given)	inactive: -5.98%	
Cc1ccc2c(c1)c(=O)c(C(=O)c1ccncc1)cn2CC(=O)Nc1ccc(C(C)C)cc1	inactive: 1.88%	
COc1cccc(NC(=O)Cn2nc3c4ccccc4n(Cc4cccc(F)c4)cc-3c2=O)c1	inactive: -5.06%	
Cc1nn(CCC(=O)NCc2ccc(N(C)C)cc2)c(=O)c2nn(-c3ccccc3)c(C)c12	inactive: 0.917%	
Cc1ccc(N2CC(NC(=O)c3ccc(Br)o3)CC2=O)cc1C (stereo not given)	inactive: 0.166%	
CC(C)(C)c1ccc(C(=O)Nc2ccc(-c3nc4cc(Cl)ccc4o3)cc2)cc1	inactive: 5.69%	
CCOc1ccc(NCc2cccn2-c2nnc(N3CCC(C(=O)NCc4ccc(C)cc4)CC3)s2)cc1	inactive: 3.76%	
Cc1nnc(N2CCN(c3ccccc3F)CC2)c2c1nnn2Cc1ccccc1Cl	inactive: 3.03%	
COc1ccc2nc3oc(C(=O)N(C)c4ccc(Cl)cc4)cc3cc2c1	inactive: 1%	
CCc1nnc(NC(=O)CSc2nccn2Cc2ccc(F)cc2)s1	inactive: 0%	
COc1ccc(N2CCN(CC(O)COc3ccc(C(C)C)c(C)c3)CC2)cc1 (stereo not given)	inactive: -22.9%	
COC(=O)c1sc2cccc(F)c2c1S(=O)(=O)N1CCN(c2cccc(C)c2)C(C)C1 (stereo not given)	inactive: -6.23%	
Cc1nc2ccc(S(=O)(=O)N(CC(=O)Nc3ccc(F)cc3)Cc3ccccc3)cc2s1	inactive: 2.96%	

Structure (SMILES)	activity change, negative = inhibition	Potency
CC1CCc2c(sc(NC(=O)CCCOc3ccccc3)c2C(N)=O)C1 (stereo not given)	inactive: -11.1%	
CC(C)(C)OC(=O)N1CCC(c2c(C(=O)N3CCN(C(=O)c4ccco4)CC3)cnn2-c2ccc(F)cc2F)CC1	inactive: 2.02%	
CCOc1ccc(-n2nc3ccc(NC(=O)Cc4ccccc4)cc3n2)cc1	inactive: 2.21%	
CCCOC(=O)c1c(NC(=O)c2cc3ccccc3c(=O)o2)sc2c1CCC(C)C2 (stereo not given)	inactive: -2.5%	
COC(=O)c1ccc(Cn2nnc3c(=O)[nH]c(C4CCCN(S(=O)(=O)c5ccccc5Cl)C4)nc32)cc1 (stereo not given)	inactive: 5.14%	
Cc1ccc(-c2nnc3c4ccccc4c(C)nn23)cc1NC(=O)c1ccccc1	inactive: -2.5%	
COc1ccc(-c2cn3c(C)c(C(=O)Nc4cc(C)cc(C)c4)sc3n2)cc1	inactive: -3.58%	
CCc1ccccc1-n1c(N)c(C(=O)OC)c2nc3ccccc3nc21	inactive: 0.238%	
CCc1cccc(NC(=O)CN(C)S(=O)(=O)c2ccc3[nH]c4c(c3c2)CCCC4)c1	inactive: 3.32%	
COc1cc(NC(=O)c2nnn(CC(=O)Nc3cc(C)ccc3C)c2N)cc(OC)c1	inactive: -6.78%	
CCOc1cc(C(=O)Nc2ccc3c(c2)n(C)c(=O)c(=O)n3C)cc(OCC)c1OCC	inactive: 1.89%	
CCOc1ccc(-n2c(SCC(=O)Nc3ccc(CC)cc3)nc3c(oc4ccccc43)c2=O)cc1	inactive: -20%	
O=C(Nc1ccc(OC(F)(F)F)cc1)c1noc2c1CCCC2	inactive: 0.51%	
CCOC(=O)CCc1c(C)nc2cc(-c3cc(OC)cc(OC)c3)[nH]n2c1=O	inactive: 6.53%	
COc1cc(NC(=O)c2cc(-c3cccc(OC)c3)n[nH]2)cc(OC)c1	inactive: -17.3%	
COC(=O)c1ccc(NC(=O)CC2C(=O)N(c3cccc(OC)c3)C(=O)N2C(C)C)cc1 (stereo not given)	inactive: -1.9%	
CCOC(=O)c1c(C)oc2ncnc(Nc3cc(C)cc(C)c3)c12	inactive: 0.561%	
O=C(NCCc1csc2nc(-c3ccccc3F)nn12)C(=O)Nc1cc(F)ccc1F	inactive: -2.2%	
CCC1=C(c2ccc(C)cc2)S(=O)(=O)N=C1N1CCC(C(=O)NCc2ccc(N(C)C)cc2)CC1	inactive: -2.96%	
CCN1C(=O)c2ccccc2Sc2ccc(NC(=O)Nc3cccc([N+](=O)[O-])c3C)cc21	inactive: -20.8%	
